In publication PMC4336329 (PLoS ONE, 2015):
Among all 310,000 compounds or so, about 14,000 (4.5%) showed an effect of 50% or more. Effects have a minus sign here. The list shows a part of the results.

target: human ether-à-go-go-related gene (hERG) potassium channel (human, UniProt Q12809); assay: primary screen, population patch clamp on CHO cells stably expressing hERG
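Also: peak tail current of the secondary pulse compared with the same well before compound.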

human ether-à-go-go-related gene (hERG) potassium channel, sequence (Q12809 whole entry, looked up): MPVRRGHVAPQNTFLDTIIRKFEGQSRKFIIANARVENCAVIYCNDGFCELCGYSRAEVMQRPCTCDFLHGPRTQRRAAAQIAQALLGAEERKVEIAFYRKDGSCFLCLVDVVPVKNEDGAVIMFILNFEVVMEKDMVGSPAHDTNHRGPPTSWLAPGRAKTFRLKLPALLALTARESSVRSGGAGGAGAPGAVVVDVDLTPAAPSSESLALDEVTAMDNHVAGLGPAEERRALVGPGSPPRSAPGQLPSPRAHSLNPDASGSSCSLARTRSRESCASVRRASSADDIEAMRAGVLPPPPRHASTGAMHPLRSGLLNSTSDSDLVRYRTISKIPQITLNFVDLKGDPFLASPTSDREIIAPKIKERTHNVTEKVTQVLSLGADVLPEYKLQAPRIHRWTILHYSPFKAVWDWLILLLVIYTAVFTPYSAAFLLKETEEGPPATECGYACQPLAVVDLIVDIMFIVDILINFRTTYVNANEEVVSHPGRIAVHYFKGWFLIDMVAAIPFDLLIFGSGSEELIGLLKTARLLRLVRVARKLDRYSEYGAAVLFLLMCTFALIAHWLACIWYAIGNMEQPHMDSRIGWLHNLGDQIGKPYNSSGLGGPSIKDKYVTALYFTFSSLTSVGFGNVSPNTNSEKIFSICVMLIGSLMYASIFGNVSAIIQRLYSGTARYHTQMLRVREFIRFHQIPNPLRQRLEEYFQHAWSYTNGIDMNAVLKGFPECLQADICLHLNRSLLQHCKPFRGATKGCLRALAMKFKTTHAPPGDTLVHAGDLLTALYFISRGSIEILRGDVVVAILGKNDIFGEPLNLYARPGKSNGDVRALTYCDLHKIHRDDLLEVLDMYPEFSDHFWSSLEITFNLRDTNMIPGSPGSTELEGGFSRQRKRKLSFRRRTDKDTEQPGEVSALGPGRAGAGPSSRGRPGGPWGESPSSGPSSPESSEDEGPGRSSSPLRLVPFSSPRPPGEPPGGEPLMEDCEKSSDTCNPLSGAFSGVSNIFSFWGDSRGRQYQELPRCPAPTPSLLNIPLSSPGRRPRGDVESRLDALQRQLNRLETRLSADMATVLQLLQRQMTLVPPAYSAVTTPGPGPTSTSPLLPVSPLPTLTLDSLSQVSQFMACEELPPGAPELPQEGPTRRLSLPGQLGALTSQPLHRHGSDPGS

SMILES | hERG current change (%, negative = inhibition) at 10uM [%]
O=C(CCN1C(=O)C2CC=C(Cl)CC2C1=O)NCc1ccco1 (stereo not drawn) | -2.13
CCCc1cc(=O)oc2cc(OCC(=O)N3CCOCC3)c(Cl)cc12 | 13.5
O=C(CCN1C(=O)c2ccccc2C1=O)Nc1sc2c(c1C(=O)NCC1CCCO1)CCC2 (stereo not drawn) | -3.78
CC1CCN(C(=O)CN(c2ccc(Oc3ccccc3)cc2)S(C)(=O)=O)CC1 | -9.11
N=c1oc2ccccc2cc1-c1nc(-c2ccccc2)cs1 | -2.14
COc1ccc(N2CCN(S(=O)(=O)CCNC(=O)c3ccc4c(c3)OCO4)CC2)cc1 | 7.9
Cn1cc(C(=O)c2ccc(Cl)cc2Cl)cc1C(=O)N/N=C(\N)COc1ccc(Cl)cc1Cl | -7.99
CCCCn1c(Oc2ccc(C(=O)OC)cc2)nc2c1c(=O)n(C)c(=O)n2C | -6.96
O=C1NC(=O)/C(=C\c2cn(Cc3ccccc3F)c3ccccc23)N1 | 20.4
CCCCn1c(N)c(N(CC(C)C)C(=O)C2CC(=O)N(Cc3ccccc3)C2)c(=O)[nH]c1=O (stereo not drawn) | 9.04
CC(=O)NC(=S)Nc1ccc(NC(=O)c2cccs2)cc1 | 11.1
Cn1nc(C(=O)Nc2sc3c(c2C#N)CCCC3)ccc1=O | 5.37
Cc1ccn(CCNC(=O)C2CCC(=O)N(Cc3ccc(Cl)cc3)C2)n1 (stereo not drawn) | -3.57
O=C(CCc1ccccc1)NNC(=O)c1ccccn1 | 25.4
COc1cccc(-c2nn(C)c3sc(C(=O)NCc4ccc(C)cc4)cc23)c1 | 5.06
CCCOC(=O)c1c(NC(=O)/C=C/c2cnn(C)c2C)sc(C(=O)OCC)c1C | 4.07
C=CCn1c(C)c(/C=C/c2cc[n+](C)cc2)c2ccccc21.[I-] | -22.2
O=C(O)c1ccc(COc2ccccc2/C=C2\NC(=O)N(Cc3ccccc3F)C2=O)cc1 | 6.58
CC(C)C(NS(=O)(=O)c1c(Cl)cccc1Cl)C(=O)OCC(=O)c1c[nH]c2ccccc12 (stereo not drawn) | -3.43
Cc1ccc2oc(-c3ccco3)cc(=O)c2c1 | 16.3
N#CC1=C(N)Oc2cc(O)ccc2C1c1cccnc1 (stereo not drawn) | 27.4
Cc1noc(C)c1COc1ccccc1C(=O)NCCc1ccc(Cl)cc1 | -20.8

SMILES | hERG current change (%, negative = inhibition) at 10uM [%]
O=C(Oc1ccc(Cl)cc1)c1ccc(N2CCOCC2)c([N+](=O)[O-])c1 | -15.9
Cc1coc(C)c1C(=O)CC1(O)C(=O)N(CCc2ccccc2)c2ccccc21 (stereo not drawn) | 3.21
CCOCc1c(C(=O)OCC(=O)NCc2ccc(F)cc2)oc2ccccc12 | -23.6
CCCCCCCCCCCCOC1OC(CO)C(O)C(O)C1NC(C)=O (stereo not drawn) | -3.8
CCN(CC)S(=O)(=O)c1ccc(NCc2ccccc2)nc1 | -11.3
CCCC(=O)Nc1ccc(Cl)c(-c2nc3ncccc3o2)c1 | -13.3
Cc1ccc(NC(=O)CCNS(=O)(=O)c2ccc(Br)s2)cc1 | 13.7
CCSc1nc(N)c2c3c(sc2n1)CCC3 | 9.27
c1cc(-c2ccncc2)ccn1 | 20.9
COc1ccccc1CN1CC(C(=O)NCc2cccc(Cl)c2)CCC1=O (stereo not drawn) | -14.3
Cc1ccc(NC(=S)N2CCN(S(=O)(=O)c3c(F)cccc3F)CC2)cc1C | -17.6
Cc1c[nH]c2cccc(OCC(CNC(C)(C)C)OC(=O)c3ccccc3)c12.Cl (stereo not drawn) | 1.02
CCCCCCCC(=O)NNC(=O)c1c(O)c2ccccc2n(CC)c1=O | 15.6
COc1ccccc1C/C(N)=N/OC(=O)COc1ccc(C)cc1 | -15.3
CC(C)Oc1ccc(/C=C(/NC(=O)c2ccccc2)C(=O)NC(Cc2ccccc2)C(=O)O)cc1 (stereo not drawn) | 17.7
Cl.O=C(CCN1CCCC1Cc1ccccc1)c1ccc2c(c1)OCCO2 (stereo not drawn) | -46.4
C#Cc1ccc(C(=O)Nc2ccc(N3CCC(C)CC3)c(C(N)=O)c2)cc1 | 28.8
CCCN1C(=O)/C(=C/c2c(NCCCOC(C)C)nc3c(C)cccn3c2=O)SC1=S | -4.12
CCN(CC)C(=O)c1ccc(C(=O)c2c(C)cc(C)cc2C)cc1 | -18.7
CC(=O)Nc1ccc(S(=O)(=O)NCc2ccc(C)cc2)cc1 | -5.84
CN(C)S(=O)(=O)c1cccc(NC(=O)c2cccc(S(=O)(=O)N3CCCCC3)c2)c1 | -27.9
COc1ccnc(Oc2ccc(F)cc2)c1C(=O)N/C=N/OCc1ccc(Cl)cc1Cl | 23

SMILES | hERG current change (%, negative = inhibition) at 10uM [%]
O=C(NCc1ccc2c(c1)OCO2)C1CC(c2cccc(Br)c2)=NO1 (stereo not drawn) | -17
O=c1c2ccccc2nc(SCc2ccc([N+](=O)[O-])cc2)n1CCCO | -57.9
CCO/C=N/c1c(C#N)c2c(c(=S)n1C)COC(C)(C)C2 | 10.5
CCOc1ccc(Nc2oc(-c3cccc(Cl)c3)nc2C#N)cc1 | 20.7
COc1ccc(-c2nc3ccccc3c(=O)n2CC(C)C)cc1 | 23.7
CO/N=C/c1ccc(Sc2ccc(C)cc2)c([N+](=O)[O-])c1 | 4.74
Cc1ccc(S(=O)(=O)N(C)C)cc1NC(=O)C(C)OC(=O)/C=C/c1cccs1 (stereo not drawn) | -42.2
O=C(O)C1CCCN1S(=O)(=O)c1ccc(Br)cc1 (stereo not drawn) | 12.9
CN(C)/C=C/C(=O)c1ccc(Oc2ccccc2)cc1 | 0.618
CCOc1cccc(NC(=O)/C(C#N)=C\c2cccnc2)c1 | -5.73
Cc1ccc(C(=O)OCC(=O)Nc2cc(S(C)(=O)=O)ccc2Cl)cc1S(=O)(=O)N1CCCCC1 | -26.9
COCCc1ncc(CN2CCC(C(=O)Nc3cccc(-c4cscn4)c3)CC2)cn1 | -13.7
O=C(NCC(=O)N(c1cccnc1)C(C(=O)NCc1ccco1)c1ccccc1)c1ccco1 (stereo not drawn) | 5.37
CC(=O)Nc1nn(C)c2nc(C)cc(C)c12 | -4.02
CN1C(=O)CSc2ccc(NC(=O)NCCC3=CCCCC3)cc21 | -4.93
CN(C)CCCNC(=O)C(=O)NCC1CCCO1 (stereo not drawn) | 8.92
COc1ccc(CCOC(=O)CNC(=O)c2ccc(Cl)cc2Cl)cc1 | 7.08
Cc1ccccc1C(=O)Nc1nnc(CC(=O)N/N=C/c2ccco2)s1 | 15.8
CCOC(=O)CC(=O)CSc1ncnc2c1oc1ccccc12 | 5.2
CC(=O)NC(Cc1ccc(C)cc1)C(=O)NC1CCN(c2ncccc2[N+](=O)[O-])CC1 (stereo not drawn) | 7.92
COc1ccc(N2CCN(C(=O)C(=O)c3c[nH]c4ccccc34)CC2)cc1 | 21.6
C=CCSc1nnc(NC(=O)c2nc(SCC)ncc2Cl)s1 | -19.5

SMILES | hERG current change (%, negative = inhibition) at 10uM [%]
O=C(CC1NC2CCCCC2NC1=O)Nc1cccc(C(F)(F)F)c1 (stereo not drawn) | -3.61
O=C(c1cccs1)N1C2CCC1CC(O)(c1cccnc1)C2 (stereo not drawn) | -7.75
COc1ccccc1-c1cc(C(=O)N2CCCc3ccccc32)no1 | -2.27
CC1CCCC(C)N1C(=O)CSc1nnc(NC(=O)c2cccs2)s1 (stereo not drawn) | 12
COc1cc(Cl)c(C)cc1NC(=O)COc1ccccc1[N+](=O)[O-] | -5.53
O=S(=O)(Nc1nc2ccc(S(=O)(=O)N3CCCC3)cc2s1)c1ccc(F)cc1 | -2.68
CC(C)C(=O)Nc1cccc(NC(=S)NC(=O)c2cccs2)c1 | -20.9
Cc1ccc(N2CC(C(=O)Nc3nc4ccc(S(C)(=O)=O)cc4s3)CC2=O)cc1C (stereo not drawn) | -4.67
Cc1nc(C(=O)NCC(=O)c2ccccc2)c(C(F)(F)F)o1 | 9.34
COc1ccc(OC)c(/C=N/NC(=O)c2ccc[n+](CC(=O)c3ccccc3)c2)c1 | 15.3
Cc1ccc(C)c(NS(=O)(=O)c2ccc3c(c2)NC(=O)CCS3)c1 | -15
Cc1ccc(S(=O)(=O)c2cn(C)c3cc(N4CCN(C)CC4)c(F)cc3c2=O)c(C)c1 | -9.51
CCCCc1nnc(NC(=O)C2CC(=O)N(c3ccc(C)cc3)C2)s1 (stereo not drawn) | -1.26
O=C(CNC(=O)c1ccco1)NCC(=O)OCc1cccc(Cl)c1 | -13
Cc1cccc(C)c1NC(=O)Cc1cccs1 | 8.03
O=C(Cc1cnn(-c2ccccc2)c1)c1ccc(O)c(O)c1O | -2.43
Cc1ccc(C(=O)Nc2ccccc2C(=O)N2CCN(c3ccccc3)CC2)cc1 | 1.79
CN(CC(=O)NCC1CCCCC1)CC(=O)Nc1ccc(F)cc1 | -17.3
COc1ccc(OC)c(S(=O)(=O)NCc2cn3cccc(C)c3n2)c1 | 19.5
O=C(CSCc1ccc([N+](=O)[O-])cc1)NC1CCCCCC1 | -50.8
Clc1ccc2nc(CSc3nncn3-c3ccccc3)cn2c1 | -5.18
